Experimental data taken from the supplement of paper PMC8728848.
Some of the results follow.

What was measured:
Assay in all cases: glycan array binding signal (z-score within array); higher = stronger binding
Details in all cases: glycan notation: IUPAC condensed, linker removed
Fuc(a1-3)GlcNAc = biological target: Fuc(a1-3)GlcNAc
In short: (§1)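 The Consortium for Functional Glycomics database supplied 3228 glycan arrays, of which those lacking an available protein sequence were dropped. The binding signal, a within-array Z-score, was averaged across arrays of the same protein sequence and across linkers. Negative scores can be read as non-binding.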

[1] = biological target: Fuc(a1-3)[Gal(b1-4)]Glc6S
In short: as §1

[2] = biological target: Fuc(a1-3)[Gal(b1-4)]GlcNAc
In short: as §1

[3] = biological target: Fuc(a1-3)[Gal(b1-4)]GlcNAc(b1-2)Man
In short: as §1

[4] = biological target: Fuc(a1-3)[Gal(b1-4)]GlcNAc(b1-2)Man(a1-3)[Fuc(a1-3)[Gal(b1-4)]GlcNAc(b1-2)Man(a1-6)]Man(b1-4)GlcNAc(b1-4)GlcNAc
In short: as §1

[5] = biological target: Fuc(a1-3)[Gal(b1-4)]GlcNAc(b1-2)Man(a1-3)[Fuc(a1-3)[Gal(b1-4)]GlcNAc(b1-2)Man(a1-6)]Man(b1-4)GlcNAc(b1-4)[Fuc(a1-6)]GlcNAc
In short: as §1

[6] = biological target: Fuc(a1-3)[Gal(b1-4)]GlcNAc(b1-3)Gal(b1-3)[Fuc(a1-4)]GlcNAc
In short: as §1

[7] = biological target: Fuc(a1-3)[Gal(b1-4)]GlcNAc(b1-3)Gal(b1-4)[Fuc(a1-3)]GlcNAc
In short: as §1

[8] = biological target: Fuc(a1-3)[Gal(b1-4)]GlcNAc(b1-3)Gal(b1-4)[Fuc(a1-3)]GlcNAc(b1-3)Gal(b1-4)[Fuc(a1-3)]GlcNAc
In short: as §1

[9] = biological target: Fuc(a1-3)[Gal(b1-4)]GlcNAc(b1-3)GalNAc
In short: as §1

[10] = biological target: Fuc(a1-3)[Gal(b1-4)]GlcNAc(b1-6)GalNAc
In short: as §1

[11] = biological target: Fuc(a1-3)[Gal(b1-4)]GlcNAc(b1-6)[Gal(b1-3)GlcNAc(b1-3)]Gal(b1-4)Glc
In short: as §1

[12] = biological target: Fuc(a1-3)[Gal(b1-4)]GlcNAc6S
In short: as §1

[13] = biological target: Fuc(a1-3)[Gal3S(b1-4)]Glc
In short: as §1

[14] = biological target: Fuc(a1-3)[Gal3S(b1-4)]GlcNAc
In short: as §1

[15] = biological target: Fuc(a1-3)[Gal3S(b1-4)]GlcNAc6S
In short: as §1

[16] = biological target: Fuc(a1-3)[GalNAc(b1-4)]GlcNAc
In short: as §1

[17] = biological target: Fuc(a1-3)[GalNAc(b1-4)]GlcNAc6S
In short: as §1

Fuc(a1-4)GlcNAc = biological target: Fuc(a1-4)GlcNAc
In short: as §1

Fuc(b1-3)GlcNAc = biological target: Fuc(b1-3)GlcNAc
In short: as §1

Gal(a1-2)Gal = biological target: Gal(a1-2)Gal
In short: as §1

Gal(a1-3)Gal = biological target: Gal(a1-3)Gal
In short: as §1

Gal(a1-3)Gal(b1-3)GlcNAc = biological target: Gal(a1-3)Gal(b1-3)GlcNAc
In short: as §1

[18] = biological target: Gal(a1-3)Gal(b1-3)GlcNAc(b1-2)Man
In short: as §1

[19] = biological target: Gal(a1-3)Gal(b1-3)GlcNAc(b1-2)Man(a1-3)[Gal(a1-3)Gal(b1-3)GlcNAc(b1-2)Man(a1-6)]Man(b1-4)GlcNAc(b1-4)GlcNAc
In short: as §1

[20] = biological target: Gal(a1-3)Gal(b1-3)GlcNAc(b1-3)GalNAc
In short: as §1

[21] = biological target: Gal(a1-3)Gal(b1-3)GlcNAc(b1-6)GalNAc
In short: as §1

[22] = biological target: Gal(a1-3)Gal(b1-3)[Fuc(a1-4)]GlcNAc(b1-2)Man(a1-3)[Gal(a1-3)Gal(b1-3)[Fuc(a1-4)]GlcNAc(b1-2)Man(a1-6)]Man(b1-4)GlcNAc(b1-4)GlcNAc
In short: as §1

Gal(a1-3)Gal(b1-4)Glc = biological target: Gal(a1-3)Gal(b1-4)Glc
In short: as §1

Gal(a1-3)Gal(b1-4)GlcNAc = biological target: Gal(a1-3)Gal(b1-4)GlcNAc
In short: as §1

[23] = biological target: Gal(a1-3)Gal(b1-4)GlcNAc(b1-2)Man
In short: as §1

[24] = biological target: Gal(a1-3)Gal(b1-4)GlcNAc(b1-2)Man(a1-3)[Gal(a1-3)Gal(b1-4)GlcNAc(b1-2)Man(a1-6)]Man(b1-4)GlcNAc(b1-4)GlcNAc
In short: as §1

[25] = biological target: Gal(a1-3)Gal(b1-4)GlcNAc(b1-3)GalNAc
In short: as §1

[26] = biological target: Gal(a1-3)Gal(b1-4)GlcNAc(b1-6)GalNAc
In short: as §1

[27] = biological target: Gal(a1-3)Gal(b1-4)[Fuc(a1-3)]GlcNAc
In short: as §1

[28] = biological target: Gal(a1-3)Gal(b1-4)[Fuc(a1-3)]GlcNAc(b1-2)Man(a1-3)[Gal(a1-3)Gal(b1-4)[Fuc(a1-3)]GlcNAc(b1-2)Man(a1-6)]Man(b1-4)GlcNAc(b1-4)GlcNAc
In short: as §1

Gal(a1-3)GalNAc = biological target: Gal(a1-3)GalNAc
In short: as §1

[29] = biological target: Gal(a1-3)[Gal(a1-4)]Gal(b1-4)GlcNAc
In short: as §1

[30] = biological target: Gal(a1-4)Gal(b1-3)GlcNAc(b1-2)Man(a1-3)[Gal(a1-4)Gal(b1-3)GlcNAc(b1-2)Man(a1-6)]Man(b1-4)GlcNAc(b1-4)GlcNAc
In short: as §1

Gal(a1-4)Gal(b1-4)Glc = biological target: Gal(a1-4)Gal(b1-4)Glc
In short: as §1

Gal(a1-4)Gal(b1-4)GlcNAc = biological target: Gal(a1-4)Gal(b1-4)GlcNAc
In short: as §1

[31] = biological target: Gal(a1-4)Gal(b1-4)GlcNAc(b1-2)Man(a1-3)[Gal(a1-4)Gal(b1-4)GlcNAc(b1-2)Man(a1-6)]Man(b1-4)GlcNAc(b1-4)GlcNAc
In short: as §1

[32] = biological target: Gal(a1-4)Gal(b1-4)GlcNAc(b1-3)Gal(b1-4)Glc
In short: as §1

Gal(a1-4)GlcNAc = biological target: Gal(a1-4)GlcNAc
In short: as §1

Gal(a1-6)Glc = biological target: Gal(a1-6)Glc
In short: as §1

B1: Pwp5 ND (Candida glabrata) (protein)
chain: MGSSHHHHHHSSGLVPRGSHMASANPVPLTNVCYFPEEYPRQAGFRAITAGLASTILQGSVDELLNYSGLSSLTTQQTTTTTPNFQLPTLPLPTNVYGLTVVPLYLLVQLQGYFVPPVSGQYTFSLENTNDAAIIFFGNPSAFPCGDLSAWPQASADDITVTDGTFPSRTLFLKAGVAYPMRISYYNSLGSGNLAVSFTDPGGTKRTNWNGYIWRYNSCSTCTYT
- glycan array binding signal (z-score) (Fuc(a1-3)GlcNAc): -0.909
- glycan array binding signal (z-score) [1]: 3.45
- glycan array binding signal (z-score) [2]: -0.558
- glycan array binding signal (z-score) [3]: -0.595
- glycan array binding signal (z-score) [4]: 1.55
- glycan array binding signal (z-score) [5]: -0.244
- glycan array binding signal (z-score) [6]: 0.067
- glycan array binding signal (z-score) [7]: -0.543
- glycan array binding signal (z-score) [8]: -0.258
- glycan array binding signal (z-score) [9]: -0.539
- glycan array binding signal (z-score) [10]: 1.73
- glycan array binding signal (z-score) [11]: -0.271
- glycan array binding signal (z-score) [12]: -0.521
- glycan array binding signal (z-score) [13]: -0.316
- glycan array binding signal (z-score) [14]: -0.608
- glycan array binding signal (z-score) [15]: 0.214
- glycan array binding signal (z-score) [16]: -0.351
- glycan array binding signal (z-score) [17]: -0.641
- glycan array binding signal (z-score) (Fuc(a1-4)GlcNAc): -0.606
- glycan array binding signal (z-score) (Fuc(b1-3)GlcNAc): 2.63
- glycan array binding signal (z-score) (Gal(a1-2)Gal): -0.54
- glycan array binding signal (z-score) (Gal(a1-3)Gal): -0.029
- glycan array binding signal (z-score) (Gal(a1-3)Gal(b1-3)GlcNAc): -0.313
- glycan array binding signal (z-score) [18]: -0.505
- glycan array binding signal (z-score) [19]: -0.224
- glycan array binding signal (z-score) [20]: -0.234
- glycan array binding signal (z-score) [21]: -0.579
- glycan array binding signal (z-score) [22]: 0.472
- glycan array binding signal (z-score) (Gal(a1-3)Gal(b1-4)Glc): -0.561
- glycan array binding signal (z-score) (Gal(a1-3)Gal(b1-4)GlcNAc): -0.547
- glycan array binding signal (z-score) [23]: -0.129
- glycan array binding signal (z-score) [24]: 0.491
- glycan array binding signal (z-score) [25]: -0.575
- glycan array binding signal (z-score) [26]: -0.36
- glycan array binding signal (z-score) [27]: -0.221
- glycan array binding signal (z-score) [28]: 0.326
- glycan array binding signal (z-score) (Gal(a1-3)GalNAc): -0.251
- glycan array binding signal (z-score) [29]: 0.526
- glycan array binding signal (z-score) [30]: -0.403
- glycan array binding signal (z-score) (Gal(a1-4)Gal(b1-4)Glc): -0.428
- glycan array binding signal (z-score) (Gal(a1-4)Gal(b1-4)GlcNAc): -0.334
- glycan array binding signal (z-score) [31]: 0.073
- glycan array binding signal (z-score) [32]: 0.466
- glycan array binding signal (z-score) (Gal(a1-4)GlcNAc): -0.422
- glycan array binding signal (z-score) (Gal(a1-6)Glc): -0.324
